These results are taken from PMC4336329 (PLoS ONE, 2015).

About 14,000 (4.5%) of roughly 310,000 compounds showed an effect of 50% or more. The effect is printed as a negative number. Some of the results follow.
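Note: peak tail current of the secondary pulse compared with the same well before compound.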

In the test the target is human ether-à-go-go-related gene (hERG) potassium channel (human, UniProt Q12809). As to the kind of experiment: primary screen, population patch clamp on CHO cells stably expressing hERG.
human ether-à-go-go-related gene (hERG) potassium channel, sequence (Q12809 whole entry, looked up): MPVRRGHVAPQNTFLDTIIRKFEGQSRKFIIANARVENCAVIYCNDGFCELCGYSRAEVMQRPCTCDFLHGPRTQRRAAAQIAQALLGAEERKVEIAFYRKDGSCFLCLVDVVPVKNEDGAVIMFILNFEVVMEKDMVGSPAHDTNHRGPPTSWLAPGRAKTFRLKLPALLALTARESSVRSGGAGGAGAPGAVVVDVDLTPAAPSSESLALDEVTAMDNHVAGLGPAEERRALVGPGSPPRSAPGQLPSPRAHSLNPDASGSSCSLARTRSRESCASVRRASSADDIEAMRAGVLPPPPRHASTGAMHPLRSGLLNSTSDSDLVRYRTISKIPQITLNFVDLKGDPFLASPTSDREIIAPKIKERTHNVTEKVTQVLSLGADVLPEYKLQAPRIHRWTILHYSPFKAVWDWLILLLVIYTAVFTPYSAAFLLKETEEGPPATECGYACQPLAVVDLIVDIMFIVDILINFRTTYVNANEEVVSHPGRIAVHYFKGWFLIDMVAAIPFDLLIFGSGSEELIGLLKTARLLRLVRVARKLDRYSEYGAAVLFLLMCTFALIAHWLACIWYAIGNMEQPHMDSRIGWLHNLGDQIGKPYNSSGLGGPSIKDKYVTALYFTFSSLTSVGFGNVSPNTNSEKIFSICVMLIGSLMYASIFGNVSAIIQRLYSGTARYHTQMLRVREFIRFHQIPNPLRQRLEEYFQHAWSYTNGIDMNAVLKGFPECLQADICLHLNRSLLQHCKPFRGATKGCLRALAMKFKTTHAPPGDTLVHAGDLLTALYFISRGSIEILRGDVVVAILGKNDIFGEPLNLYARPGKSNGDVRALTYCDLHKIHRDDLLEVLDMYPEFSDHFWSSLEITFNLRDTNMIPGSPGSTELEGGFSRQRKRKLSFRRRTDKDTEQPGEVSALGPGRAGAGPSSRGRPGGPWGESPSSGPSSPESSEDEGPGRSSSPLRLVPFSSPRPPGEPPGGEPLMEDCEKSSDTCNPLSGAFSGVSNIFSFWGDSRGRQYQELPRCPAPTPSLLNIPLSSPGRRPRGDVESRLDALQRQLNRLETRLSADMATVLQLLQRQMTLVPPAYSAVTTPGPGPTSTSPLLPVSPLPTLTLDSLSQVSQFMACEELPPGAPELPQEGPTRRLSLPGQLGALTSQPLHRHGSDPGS
In the case of `O=[N+]([O-])c1ccc(Nc2nc(NC3CCCCC3)nc(N3CCCC3)n2)cc1`, the “hERG current change (%, negative = inhibition) at 10uM” value amounted to 13.5%.

`CCNC(=O)/C=C1\NC(C)(C)Cc2c1ccc1ccccc21`: the “hERG current change (%, negative = inhibition) at 10uM” value is recorded as -16.5%. With `CC1CCN(S(=O)(=O)c2ccc(C(=O)Nc3nnc(-c4ccncc4)o3)cc2)CC1`, the “hERG current change (%, negative = inhibition) at 10uM” value is -8.76%. Consider `Cc1cc(C(=O)Nc2ccc(Cl)c(S(=O)(=O)N3CCOCC3)c2)c2ccccc2n1`, for which the “hERG current change (%, negative = inhibition) at 10uM” value is on record as -13.7%. With `COc1ccc(S(=O)(=O)N2CCCC(C(=O)NCc3ccc(F)cc3)C2)cc1` (stereo not drawn), the “hERG current change (%, negative = inhibition) at 10uM” value is reported as 6.39%. In the case of `O=C(CSc1nncc(=O)[nH]1)Nc1cccc([N+](=O)[O-])c1` it was -40.9%; in that of `COc1cc(/C=N/n2c(C3CCCCC3)n[nH]c2=S)cc(OC)c1O`, 16.8%. In the case of `CN1CC[C@@]2(C)c3cc(O)ccc3N(C)C2O1` (stereo partly drawn), the “hERG current change (%, negative = inhibition) at 10uM” value was -6.32%. On to `Fc1ccc(Cn2nnnc2C(c2cccs2)N2CCN(C3CCCCC3)CC2)cc1` (stereo not drawn), for which the “hERG current change (%, negative = inhibition) at 10uM” value is listed as -66.4%.

With `CCOc1cc(/C=N\Nc2nc(-c3ccc(C)cc3)c(NC(C)=O)s2)ccc1O`, the “hERG current change (%, negative = inhibition) at 10uM” value was -3.16%. Turning to `Cc1cc(O)c2c3c(c(=O)oc2c1)CCC(C)C3` (stereo not drawn), the “hERG current change (%, negative = inhibition) at 10uM” value is listed as -0.686%. In the case of `CN(C)C(=Nc1ccccc1)P(=S)(N(C)C)N(C)C` it was 2.68%.

Consider `COc1ccc(CCN(C)C(=O)C2CC(=O)N(Cc3ccc(C)cc3)C2)cc1OC` (stereo not drawn), for which the “hERG current change (%, negative = inhibition) at 10uM” value amounted to 0.405%. Take `CC1(C)OC(=O)C=C(CC2NS(=O)(=O)OC3CCCCC23)O1` (stereo not drawn): the “hERG current change (%, negative = inhibition) at 10uM” value is on record as -0.0926%. Under `COC(=O)CSCc1nc2ccccc2[nH]c1=O` stands 18.4%; under `COc1ccccc1NC(=O)C1C2C=CC3(CN(Cc4cccnc4)C(=O)C13)O2` (stereo not drawn), 7.4%; under `Cc1ccccc1-c1cc2nc(-c3ccc([N+](=O)[O-])cc3)cc(=O)n2[nH]1`, 30.3%.

Consider `O=c1c(C=Nc2ccc(Cl)cc2)c[nH]n1-c1cccc(Cl)n1`, for which the “hERG current change (%, negative = inhibition) at 10uM” value came to 13.7%. For `O=S(=O)(c1ccc(Cl)cc1Cl)n1ccc2cccnc21`, the “hERG current change (%, negative = inhibition) at 10uM” value is given as 8.24%. `CCN1CCN(S(=O)(=O)c2ccc(Cl)c(C(=O)NC(C)c3ccccc3Cl)c2)CC1` (stereo not drawn): the “hERG current change (%, negative = inhibition) at 10uM” value is recorded as -20.3%. Under `Cc1nnc(NN2CCOCC2)[nH]c1=O` stands 20.9%. Take `CCNC(=O)CC1SC(=Nc2cccc3ccccc23)N(C)C1=O` (stereo not drawn): the “hERG current change (%, negative = inhibition) at 10uM” value is given as 5.05%.

Regarding `Cc1c(Cl)ccc2sc(NC(=O)C3CC3)nc12`, the “hERG current change (%, negative = inhibition) at 10uM” value turned out to be 12.3%. Consider `COCCCN1C(=O)c2ccc(C(=O)O)cc2C1=O`, for which the “hERG current change (%, negative = inhibition) at 10uM” value is -0.568%.

As for `O=C(Nc1nnc(SCc2ccccc2)s1)c1cccc([N+](=O)[O-])c1`, the “hERG current change (%, negative = inhibition) at 10uM” value is on record as 4.61%.

With `Cc1ccc(NC(=S)NCC(C)CSc2ccc(Cl)cc2)cc1` (stereo not drawn), the “hERG current change (%, negative = inhibition) at 10uM” value was determined as 3.29%. In the case of `Cc1ccc(NC(=O)CN2CCCN(S(=O)(=O)c3ccc(Br)s3)CC2)cc1` it was -50.1%; in that of `COc1ccc(-c2nnc(CSc3nc4ccccc4c(=O)n3C)o2)cc1OC`, -4.89%.

`[N-]=[N+]=CC(=O)CC(c1ccccc1)N1C(=O)c2ccccc2C1=O` (stereo not drawn): the “hERG current change (%, negative = inhibition) at 10uM” value came to 25%.

With `O=S(=O)(NCC1CCN(c2ccc(S(=O)(=O)N3CCOCC3)cc2)CC1)c1ccc(F)cc1`, the “hERG current change (%, negative = inhibition) at 10uM” value is listed as -11.7%. Regarding `CSc1oc(-c2ccc(F)cc2)nc1S(=O)(=O)c1ccc(F)cc1`, the “hERG current change (%, negative = inhibition) at 10uM” value is 3.51%.

On to `CC(=O)c1ccc2c(c1)CC(C)C(=O)N2C` (stereo not drawn), for which the “hERG current change (%, negative = inhibition) at 10uM” value came to 1.75%. Consider `CCc1noc(C)c1C(=O)N1CCCC(N2CCN(c3cccc(Cl)c3)CC2)C1` (stereo not drawn), for which the “hERG current change (%, negative = inhibition) at 10uM” value is recorded as -1.09%.

As to `Cc1cc(C)cc(NC(=O)CSc2nc3ccccc3nc2N2CCCCC2)c1`, the “hERG current change (%, negative = inhibition) at 10uM” value is given as 8.14%. In the case of `CC(=O)Nc1cccc([As](=O)(c2cccc(NC(C)=O)c2)c2cccc(NC(C)=O)c2)c1` it was 2.67%; in that of `CCOC(=O)CC1=NC(=O)CS1`, 12%; in that of `CCN(CC)CC(C)CNC(=O)C1(O)c2ccccc2NC(=O)N1c1ccc(Cl)c(Cl)c1` (stereo not drawn), 3.31%.

Regarding `CCCc1cc(=O)oc2cc(OCc3nn[nH]n3)ccc12`, the “hERG current change (%, negative = inhibition) at 10uM” value was 1.1%. For the compound `COc1cc(NC(=O)CN2C(=O)NC(C)(CC(C)C)C2=O)cc(OC)c1` (stereo not drawn), the “hERG current change (%, negative = inhibition) at 10uM” value was found to be 13.6%. For the compound `CCOC(=O)C1CCCN(CCSc2ccc(C)cc2)C1.Cl` (stereo not drawn), the “hERG current change (%, negative = inhibition) at 10uM” value is recorded as -28.3%. Turning to `N#Cc1c(NC(=S)NC(=O)Cc2cccs2)sc2c1CCCCC2`, the “hERG current change (%, negative = inhibition) at 10uM” value came to 4.12%. Consider `COc1cc(CCC(=O)NCCc2ccc(F)cc2)cc(OC)c1OC`, for which the “hERG current change (%, negative = inhibition) at 10uM” value turned out to be 8.49%.

`COc1ccc(C2SCCN2C(=S)Nc2cccc(Cl)c2)cc1` (stereo not drawn): the “hERG current change (%, negative = inhibition) at 10uM” value is listed as -0.256%. In the case of `CN1CCc2c1nc1ccccc1c2N=C1CCCN1Cc1ccccc1.Cl`, the “hERG current change (%, negative = inhibition) at 10uM” value turned out to be 0.531%. For the compound `CC(=O)Nc1ccc(/C(C)=N/NS(=O)(=O)c2ccc(C)cc2)cc1`, the “hERG current change (%, negative = inhibition) at 10uM” value is recorded as 0.256%.

`NC(=O)C1CCCN(CC(=O)Nc2cc(S(=O)(=O)N3CCOCC3)ccc2N2CCCC2)C1` (stereo not drawn): the “hERG current change (%, negative = inhibition) at 10uM” value came to 2.5%.

`O=C(CCSc1nc2ccccc2s1)N/N=C/c1c(O)ccc2ccccc12`: the “hERG current change (%, negative = inhibition) at 10uM” value is on record as 21.2%. In the case of `CCOC(=O)C(=O)N/N=C/c1ccco1` it was 11.3%; in that of `CCOC(=O)CN1C(=O)CN(c2ccc(C)cc2)C1=O`, 1.51%. As for `O=C(NCc1ccccc1)C(c1ccccc1)N(Cc1cccs1)C(=O)c1cnccn1` (stereo not drawn), the “hERG current change (%, negative = inhibition) at 10uM” value is -30.5%.

As to `Nc1ccc(-n2cc(-c3ccccc3)[nH]c2=S)cc1`, the “hERG current change (%, negative = inhibition) at 10uM” value is 33.3%.

As to `Cc1c(C(=O)O)oc2ccc(S(=O)(=O)NCc3ccc(F)cc3)cc12`, the “hERG current change (%, negative = inhibition) at 10uM” value stood at 0.999%. Take `Cc1c(C(=O)O)sc2nc(-c3cccs3)cc(C(F)(F)F)c12`: the “hERG current change (%, negative = inhibition) at 10uM” value was found to be 25.8%. As to `CCN(C(=O)CN1C(=O)S/C(=C\c2ccc(F)cc2)C1=O)C1CCS(=O)(=O)C1` (stereo not drawn), the “hERG current change (%, negative = inhibition) at 10uM” value was -19.8%. Regarding `CCOC(=O)c1cnc(-n2nc(C)cc2C)nc1NNc1cc(-c2ccccc2)nc(C)n1`, the “hERG current change (%, negative = inhibition) at 10uM” value stood at 11.2%. Consider `CCOC(=O)Cc1csc(NC(=O)Cc2ccc(C)cc2)n1`, for which the “hERG current change (%, negative = inhibition) at 10uM” value is on record as -18%. For `Cc1ccc(S(=O)(=O)Oc2ccccc2/C=N/NC(=O)c2nn(C)cc2[N+](=O)[O-])cc1`, the “hERG current change (%, negative = inhibition) at 10uM” value worked out at 0.0535%.
